In PubChem BioAssay AID1030 (National Center for Advancing Translational Sciences (NCATS), 2008):
Values joined by “and” are separate entries in the source; they are usually repeats but may differ in a detail not shown here. Equal entries are not always repeated. The whole screen tested about 220,000 compounds, of which about 16,000 (7.3%) were called active. This list was built around the results that the source calls inconclusive (neither active nor inactive); the mix of calls is not that of the screen. Calls come from the whole dose curve; as a rule, active = well fitted inhibition curve with a large enough effect (not every such curve was filed as active); inconclusive = small, poorly fitted or top-dose-only effect, or another doubt; inactive = no such curve, though single readings can be large or run the other way. Where the call is inconclusive, the potency comes from a doubtful curve fit.

target: Aldehyde dehydrogenase 1A1 (Homo sapiens) (UniProt P00352); test: qHTS Assay for Inhibitors of Aldehyde Dehydrogenase 1 (ALDH1A1); settings: Purified ALDH1A1, NADH fluorescence, propionaldehyde substrate; series mostly up to 75.3 µM; activity, negative = inhibition: at the top concentration;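 for activity, negative = inhibition: plate controls were no enzyme wells and a reference inhibitor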
Potency is the fitted concentration of half-maximal effect; tags give direction and shape of the fitted curve.

UniProt P00352, sequence (P00352 whole entry, looked up): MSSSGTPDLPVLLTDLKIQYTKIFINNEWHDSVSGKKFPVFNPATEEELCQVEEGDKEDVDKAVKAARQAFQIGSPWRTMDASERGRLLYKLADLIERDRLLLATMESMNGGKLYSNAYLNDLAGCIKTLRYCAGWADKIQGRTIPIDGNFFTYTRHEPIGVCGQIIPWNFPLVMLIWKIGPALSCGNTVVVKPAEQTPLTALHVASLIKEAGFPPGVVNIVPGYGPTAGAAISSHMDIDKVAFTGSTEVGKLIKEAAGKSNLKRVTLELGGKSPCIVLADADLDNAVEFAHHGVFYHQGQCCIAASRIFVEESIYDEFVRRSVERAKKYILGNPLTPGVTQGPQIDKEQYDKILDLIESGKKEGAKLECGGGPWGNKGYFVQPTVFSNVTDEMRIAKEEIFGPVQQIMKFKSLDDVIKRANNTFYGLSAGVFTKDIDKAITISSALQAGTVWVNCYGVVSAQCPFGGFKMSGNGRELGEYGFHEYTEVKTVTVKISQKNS

Row | Structure (SMILES) | activity, negative = inhibition | Potency
1 | Cc1cc(/C=N/NC(=O)c2ccc(O)cc2)c(C)n1C1CC1 | inactive: -6.07% | 
2 | CC(=O)Oc1oc(-c2ccccc2)nc1C=Nc1ccccc1 |  | active: 17.8 µM
3 | Cc1nc2ccccn2c1C(=O)N/N=C/c1ccc2c(c1)OCO2 |  | inconclusive: 39.8 µM [inhibitor, single point]
4 | CC(C)Oc1ccc2c(=O)c3cc(C(=O)O)ccc3oc2c1 |  | inconclusive: 39.8 µM [inhibitor, single point]
5 | COc1ccccc1CNC(=O)c1ccc(Br)o1 |  | inactive and inconclusive: 39.8 µM [inhibitor, single point]
6 | COc1ccccc1NCC(=O)N/N=C/c1sccc1C |  | inconclusive: 8.91 µM [inhibitor, single point]
7 | Cc1cc(C(=O)NC2=NCCS2)cs1 |  | inconclusive: 35.5 µM [inhibitor, single point]
8 | CCc1c(C)sc(NC(=O)CSc2nc3c(c(C(F)(F)F)n2)CCc2ccccc2-3)c1C#N |  | active: 22.4 µM
9 | CCCn1c(C)cc(C(=O)CN2C(=O)c3cccc(N)c3C2=O)c1C |  | inconclusive: 39.8 µM [inhibitor, single point]
10 | CC(=O)Oc1ccc(C(=O)Cc2ccc3ccccc3n2)c(O)c1C | inactive: 8.99% | 
11 | CC/C(=N\NC(C)=O)c1ccc(OC(F)F)cc1 | inactive: 4.11% | 
12 | CC(C)O/C(=N\S(=O)(=O)c1ccc(Cl)cc1)c1ccccc1 | inactive: -1.86% | 
13 | Cc1cc(C(=O)N2CCCC(C(=O)c3cc(F)ccc3F)C2)c(C)o1 (stereo not drawn) |  | active: 14.1 µM
14 | N#Cc1cc(C(=O)c2ccccc2OCC(=O)Nc2ccccc2Cl)cn(C2CCCCC2)c1=O |  | inconclusive: 14.1 µM [inhibitor, partial curve]
15 | CCn1c(C)cc2c(c1=O)C(c1ccc3c(c1)OCO3)C(C#N)=C(N)O2 (stereo not drawn) | inactive: -16.2% | 
16 | Fc1ccccc1N1CCN(Cc2cccnc2)CC1 |  | inconclusive: 39.8 µM [inhibitor, single point]
17 | CCOC(=O)N1CCC(N2CCN(S(=O)(=O)c3ccc(NC(C)=O)cc3)CC2)CC1 |  | inconclusive: 39.8 µM [inhibitor, single point]
18 | O=C(Nc1ccc(Br)cc1)N1CCCCC1 |  | inconclusive: 25.1 µM [inhibitor, single point]
19 | N#C/C(=C/c1ccc(Sc2nc3ccccc3[nH]2)o1)c1cccc(Br)c1 |  | inconclusive: 12.6 µM [inhibitor, partial curve]
20 | COn1c2c(c3c4nonc4ccc31)CCCC2 |  | inconclusive: 39.8 µM [inhibitor, single point]
21 | CNC(=S)N/N=C(\C)c1ccc2c(c1)OCCO2 |  | active: 2.82 µM
22 | CCC(=O)Nc1c2c(nn1-c1ccccc1C)CSC2 | inactive: 4.42% | 
23 | CCCSc1nnc2n(N)c(=O)c3ccccc3n12 | inactive: -12.2% | 
24 | Cc1cccc(-n2cc(CN(C)Cc3nccn3C)c(-c3cccc(F)c3)n2)c1 |  | inconclusive: 44.7 µM [inhibitor, single point]
25 | N#Cc1c(-c2cccnc2)c2c([nH]c1=S)CCCC2 |  | inconclusive: 39.8 µM [inhibitor, single point]
26 | Cc1ccc(N(c2ncnc(N)c2[N+](=O)[O-])C2CCCCC2)cc1 | inactive: -3.18% | 

Row | Structure (SMILES) | activity, negative = inhibition | Potency
27 | Oc1ccccc1C=NC1CCCCC1N=Cc1ccccc1O (stereo not drawn) | inactive: 11% | 
28 | C=CS(=O)(=O)c1ccc(Oc2ccc(S(=O)(=O)C=C)cc2)cc1 |  | active: 0.0316 µM
29 | COc1ccc(C(=O)N/N=c2\oc3ccccc3cc2C(N)=O)cc1 | inactive: -1.79% | 
30 | O=C1c2cccc(OCC(=O)N3CCCc4ccccc43)c2CCN1Cc1ccc(Br)cc1 |  | active: 7.94 µM
31 | c1ccc(OCc2nc(-c3cccs3)no2)cc1 | inactive: -1.09% | 
32 | COCCn1c(=O)c(CCc2ccccc2)nc2cncnc21 |  | inconclusive: 39.8 µM [inhibitor, single point]
33 | CCN(Cc1ccncc1)C(=O)CSc1ccc2ccccc2c1 |  | inconclusive: 44.7 µM [inhibitor, single point]
34 | Cc1nn(-c2ccccc2)c(N)c1N=Nc1ccccc1 |  | inconclusive: 35.5 µM [inhibitor, single point]
35 | COc1cccc2cc(-c3csc(CCn4nc(C)cc4C)n3)c(=O)oc12 |  | inconclusive: 39.8 µM [inhibitor, single point]
36 | COc1ccc(C(=O)CSc2nnc(CNc3nc(-c4ccccc4)cs3)n2C)cc1 |  | inconclusive: 28.2 µM [inhibitor, single point]
37 | CCCCCCC1(C)NC(=S)N(c2ccccc2)N1 (stereo not drawn) |  | inconclusive: 39.8 µM [inhibitor, single point]
38 | O=C(CSc1ccccn1)N1CCN(c2cccc(Cl)c2)CC1 |  | inconclusive: 39.8 µM [inhibitor, single point]
39 | COc1cc(S(=O)(=O)N(Cc2ccc(C)cc2)C2CCCCC2)ccc1-n1cnnn1 |  | inconclusive: 35.5 µM [inhibitor, single point]
40 | CC(C)Cn1cc(Cl)c(=O)n(CC(C)C)c1=O | inactive: -9.23% | 
41 | O=C(O)/C=C\C(=O)Nc1ccccc1F |  | active: 35.5 µM
42 | CC(C)(C)c1[nH]nc2c1C(c1ccncc1)C(C#N)=C(N)O2 (stereo not drawn) |  | inconclusive: 25.1 µM [inhibitor, partial curve]
43 | O=C(NC(=S)NCCCN1CCOCC1)c1ccco1 |  | inconclusive: 39.8 µM [inhibitor, single point]
44 | CC1CCN(C(=O)CSc2nnc(-c3ccc(S(=O)(=O)N4CCOCC4)cc3)n2C)CC1 |  | inconclusive: 37.7 µM [inhibitor, single point]
45 | COC(=O)C1=[N+]([O-])OC(C(=O)OC)C1c1c[nH]c2ccccc12 (stereo not drawn) | inactive: -12.2% | 
46 | O=C(Nc1c(F)cc(F)cc1Br)c1ccco1 |  | inconclusive: 39.8 µM [inhibitor, single point]
47 | O=C(NCc1cccnc1)Nc1ccccc1 | inactive: 8.33% | 
48 | Oc1ccc(Br)cc1-c1cc(-c2ccc(Cl)cc2)n[nH]1 | inactive: 7.55% | 
49 | c1ccc2nc3c(nc2c1)sc1nc2ccccc2n13 | inactive: 9.28% | 
50 | Cc1cnc(CNc2nc(-c3ccccc3C)nc3ccccc23)cn1 |  | inconclusive: 20 µM [inhibitor, partial curve]
51 | COc1cc2cc3c4c(cc(OC)c(OC)c4c2cc1OC)CCN3C |  | inconclusive: 25.1 µM [inhibitor, partial curve]
52 | CC(=O)Nc1ccc(S(=O)(=O)N2CCN(CCC#N)CC2)cc1 | inactive: -1.28% | 

Row | Structure (SMILES) | activity, negative = inhibition | Potency
53 | CC(C)CO/N=C1/[C@H]2O[C@@H]2[C@@H](O)[C@H]2[C@H]1CCn1c(=O)n(C)c(=O)n12 | inactive: -0.121% [at 13.5 µM] | 
54 | S=C(NCc1ccco1)Nc1ccc2c(c1)OCCO2 |  | inconclusive: 35.5 µM [inhibitor, single point]
55 | Cn1cccc1CC(=O)N/N=C/C=C/c1ccco1 | inactive: 2.85% | 
56 | Cc1cccc(NS(=O)(=O)c2ccc(C3CCCCC3)cc2)n1 |  | inconclusive: 28.2 µM [inhibitor, partial curve]
57 | c1ccc2c(c1)CCN(c1nc3ccccc3n3cnnc13)C2 |  | inconclusive: 39.8 µM [inhibitor, single point]
58 | O=S(=O)(c1ccc2nc(COc3ccccc3)[nH]c2c1)N1CCOCC1 |  | inconclusive: 39.8 µM [inhibitor, single point]
59 | Cc1ccccc1SCc1noc(C(=O)NC(C)C)c1C(=O)O |  | inconclusive: 31.6 µM [inhibitor, single point]
60 | COc1cc(C(=O)N2CCN(C(=O)COc3ccc4ccccc4c3)CC2)cc(OC)c1OC |  | inconclusive: 39.8 µM [inhibitor, single point]
61 | Cc1ccc(C(=O)NC(=S)Nc2ccccc2C)cc1 | inactive: -1.81% | 
62 | CC(C)Nc1nc(NC(C)C)nc(N(C)N)n1 |  | inconclusive: 39.8 µM [inhibitor, single point]
63 | COc1cc2c(cc1NC(=O)CN1CCN(S(=O)(=O)c3ccc(F)cc3)CC1)oc1ccccc12 |  | inconclusive: 14.1 µM [inhibitor, partial curve]
64 | COc1cc(CN2CC(=O)N(c3ccc(C)c(C)c3)C2=S)cc(OC)c1OC | inactive: -13.8% | 
65 | CCOC(=O)C1=C(C)NC2=C(C(=O)CCC2)C1c1ccc(N(C)C)cc1 (stereo not drawn) |  | active: 28.2 µM
66 | CC1=NN(c2nc(-c3ccc(C)cc3)cs2)C(=O)C1N=Nc1ccc2ccccc2c1 (stereo not drawn) |  | inconclusive: 25.1 µM [inhibitor, partial curve]
67 | CN(Cc1c(F)cccc1Cl)c1nnnn1-c1ccccc1 |  | inconclusive: 22.4 µM [inhibitor, partial curve]
68 | Cc1ccc2nc3c(c(N)c2c1)CCN3c1ccccc1 |  | inconclusive: 25.1 µM [inhibitor, partial curve]
69 | C=CCn1c(COc2ccc(Cl)cc2)nnc1SCC(=O)NCC(=O)OCC |  | inconclusive: 12.6 µM [inhibitor, partial curve]
70 | Oc1[nH]c2ccccc2c1C=Nc1ccc2c(c1)OCCO2 |  | inconclusive: 39.8 µM [inhibitor, single point]
71 | COc1ccc2[nH]c(C)c(CCN3C(=O)C4C5C=CC(C5)C4C3=O)c2c1 (stereo not drawn) |  | active: 12.6 µM
72 | CC(C)OCCCNC(=O)c1sc(=S)n(C)c1N | inactive: -95.7% | 
73 | Cc1ccc(S(=O)(=O)CCC(=O)OC(C)C(=O)c2c(C)[nH]c3ccccc23)cc1 (stereo not drawn) | inactive: -3.42% | 
74 | O=C1CN(C(=S)Nc2ccccc2Cl)CCN1 | inactive: -4% | 
75 | Cc1ccc(/C=N/Nc2cn[nH]c(=O)n2)o1 | inactive: 5.24% | 
76 | O=C(C1CCN(S(=O)(=O)c2cnc[nH]2)CC1)N1CCN(Cc2ccc3c(c2)OCO3)CC1 |  | inconclusive: 35.5 µM [inhibitor, single point]
77 | Cc1cc(C)cc(N(CC(=O)NCCSCc2ccco2)S(C)(=O)=O)c1 | inactive: -2.35% | 
78 | O=C1c2nc3cc(-c4ccco4)[nH]n3c(=O)c2CN1C1CCCCC1 |  | inconclusive: 31.6 µM [inhibitor, partial curve]
